Experimental data reported in PubChem BioAssay AID686978 (National Center for Advancing Translational Sciences (NCATS), 2013).
Hit rate of the full screen: of about 420,000 compounds, about 64,000 (15%) were called active. The inconclusive results got no clear call from the source; some entries with a clear call stand among them for comparison. Calls follow the shape of the dose curve; as a rule, active = well fitted inhibition curve with a large enough effect; inconclusive = small, poorly fitted or top-dose-only effect; inactive = flat fitted curve, though single readings scatter. No potency is given beside an inconclusive call; the fits are too rough. Peptide text beside a SMILES is read from it. * marks the point of attachment. Boc = CC(C)(C)OC(=O)*

Assay: qHTS for Inhibitors of human tyrosyl-DNA phosphodiesterase 1 (TDP1): qHTS in cells in absence of CPT; also: nearly all actives have a fitted effect of over 55% in size
Settings: DT40 Tdp1-/- hTDP1 cells, no CPT, ATP luminescence, 48 h; activity change, negative = growth inhibition: at 46.2 µM (top of the series) unless noted
Outline: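 No-CPT arm: Tdp1-/-;hTDP1 DT40 cells (400/well) plus compounds, incubated ≥48 hr at 37 °C. Readout CellTiter-Glo luminescence.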
% is scaled to controls: 0 for no effect and ±100 for the full control effect; potency is read from the fitted curve at half-maximal effect; tags tell the direction and shape of the fitted curve.

| SMILES | Potency | activity change, negative = growth inhibition |
| --- | --- | --- |
| Cc1cc(-c2ccc(Cl)cc2Cl)c(C#N)c(=O)[nH]1 | inconclusive [inhibitor, single point] |  |
| O=C(c1nnc(-c2ccc(Cl)cc2)o1)C1CCCC1 |  | inactive: -0.7% |
| Cc1[nH]c(C)c(S(=O)(=O)N2CCN(c3cccc(Cl)c3)CC2)c1C(=O)N1CCCC1 | inconclusive [inhibitor, single point] |  |
| COc1ccc2nc(SCCN(C)C)[nH]c2c1 |  | inactive: 17.1% |
| CC(C)(C)CN1CCC(n2nccc2NC(=O)c2ccccc2Cl)CC1 |  | inactive: 0.198% |
| CC(=O)Nc1cccc([N+](=O)[O-])c1 |  | inactive: 0.516% |
| O=C(Nc1nccs1)c1ccc(-c2ccccc2[N+](=O)[O-])o1 | inconclusive [inhibitor, single point] |  |
| Cc1cccc(NC(=O)c2ccc(S(=O)(=O)N3CCCCC3)cc2)n1 |  | inactive: -26% |
| CCOC(=O)N1CCN(Cc2nc3ccc([N+](=O)[O-])cc3c(=O)n2-c2cccc(OC)c2)CC1 | inconclusive [inhibitor, partial curve, poor fit] |  |
| CCOC(=O)C1=C(CSc2nc3c(cc2C#N)CN(C)CC3)OC(N)=C(C#N)C1c1ccccc1 (stereo not drawn) | active: 29.1 µM |  |
| CC(C)NC(=O)CCSc1nc(-c2ccc3c(c2)OCO3)cc(C(F)(F)F)n1 | active: 8.2 µM |  |
| O=C(CCNC(=O)N1CC(=O)Nc2ccccc21)NCc1ccc(Cl)cc1 |  | inactive: -14.4% |
| COCCN(C(=O)COC(=O)CCCc1c[nH]c2ccccc12)c1c(N)n(Cc2ccccc2)c(=O)[nH]c1=O |  | inactive: 15.2% |
| COC(=O)c1ccc2c(c1)sc(=NC(=O)CCS(=O)(=O)c1ccccc1)n2C | inconclusive [inhibitor, single point] |  |
| CCN1CCN(S(=O)(=O)c2ccc(S(=O)(=O)N(CC)Cc3ccccc3)cc2)CC1 |  | inconclusive: -37.1% [inhibitor] |
| CCc1ccc(CN2CCC(n3nccc3NC(=O)C3CCCC3)CC2)cc1 | inconclusive [inhibitor, single point] |  |
| S=c1nc(-c2ccccc2)n(-c2ccccc2)[nH]1 |  | inactive: -11.4% |
| Cc1ccnc(NC(c2ccccn2)c2c(C)[nH]c3ccccc23)c1 (stereo not drawn) | inconclusive [inhibitor, single point] |  |
| CSc1nc2nc3c(c(=O)n2[nH]1)CCC3 |  | inactive: -9.07% |
| CC1(C(=O)N/N=C/c2ccc3c(c2)OCO3)CC1(Br)Br (stereo not drawn) |  | inactive: -1.7% |
| CN(CC(=O)Nc1cccc(F)c1)C(=O)c1ccc(N2CCOCC2)c([N+](=O)[O-])c1 | inconclusive [inhibitor, single point] |  |
| CC(C)[C@H](NC(=O)c1ccco1)C(=O)N(C)Cc1c(F)cccc1Cl | inconclusive [inhibitor, single point] |  |
| C[C@H](CO)N1C[C@H](C)[C@H](CN(C)S(=O)(=O)c2cccs2)Oc2ccc(NC(=O)Nc3ccc4c(c3)OCO4)cc2CC1=O | active: 16.4 µM |  |
| O=C(O)/C(=C/c1ccc(Cl)c([N+](=O)[O-])c1)c1ccc(S(=O)(=O)N2CCCCC2)s1 |  | inactive: -17.1% |
| CCc1cccc(OCCOC(=O)CNS(=O)(=O)c2ccc(NC(C)=O)cc2)c1 |  | inactive: -11.6% |

| SMILES | Potency | activity change, negative = growth inhibition |
| --- | --- | --- |
| CCN(CC)CCn1c(N)c(S(=O)(=O)c2ccccc2)c2nc3ccccc3nc21 | active: 18.4 µM |  |
| CCOC(=O)c1cnc(-n2nc(C)cc2C)nc1NCc1ccc2c(c1)OCO2 | inconclusive [inhibitor, single point] |  |
| Cn1nc(C(=O)OCC(=O)Nc2ccc(Cl)cc2Cl)c2ccccc2c1=O | inconclusive [inhibitor, single point] |  |
| O=C(Nc1ccc(F)c(Cl)c1)C1CCCN(S(=O)(=O)c2cccc3nsnc23)C1 (stereo not drawn) | active: 23.1 µM |  |
| COc1ccc(Cc2nnc(NC(=O)c3cccc(C)c3)s2)cc1 | inconclusive [inhibitor, single point] |  |
| COc1cc2c(cc1OC)C(c1ccc(C(F)(F)F)cc1)CC(=O)N2 (stereo not drawn) | inconclusive [inhibitor, single point] |  |
| CC(C)(C)c1ccc(S(=O)(=O)Nc2ccc(Cc3ccncc3)cc2)cc1 | active: 16.4 µM |  |
| COc1ccc(NC(=S)N(CCCN2CCOCC2)C(C)c2cc3cccc(OC)c3o2)cc1 (stereo not drawn) | inconclusive [inhibitor, single point] |  |
| COc1cccc(/C=N\NC(=O)C2=NNC(=O)C2C)c1O (stereo not drawn) | active: 23.1 µM |  |
| CN(C(=O)c1ccc(NC(=O)Cc2ccc(NC(=O)C3CCCN(C(=O)C4CCCCC4)C3)cc2)cc1)C1CCCC1 (stereo not drawn) | inconclusive [inhibitor, single point] |  |
| COc1cccc(/C=C2/NC(=O)NC2=O)c1OCC(=O)Nc1ccccc1 | inconclusive [inhibitor, partial curve] |  |
| CN(c1nccc(=O)[nH]1)C1CCN(c2nc3ccccc3n2Cc2ccc(F)cc2)CC1 | inconclusive [inhibitor, partial curve] |  |
| CCCCOc1ccc(C(=O)OC2CC(C)N(C)CC2C)cc1 (stereo not drawn) | active: 16.4 µM |  |
| Nc1nonc1-c1nc2ccccc2n1CC(=O)Nc1ccccc1C(=O)O | inconclusive [inhibitor, single point] |  |
| COc1ccc(-c2csc(Cc3nnc(N4CCOCC4)n3-c3ccccc3)n2)cc1OC | inconclusive [inhibitor, single point] |  |
| Cc1ccc(-n2ncc3c2CC(C)(C)CC3NC(=O)C2CCOCC2)cc1 (stereo not drawn) |  | inactive: -15.2% |
| CCOC(=O)C1CCN(CC(=O)Nc2c(C(=O)OC)[nH]c3ccc(Cl)cc23)CC1 | active: 10.3 µM |  |
| O=C(N/N=C/c1ccc(Cl)cc1Cl)c1ccc(-n2cnnn2)cc1 |  | inactive: -3.52% |
| Cc1sc2nc(SCC(=O)C(C)(C)C)n(Cc3ccco3)c(=O)c2c1C | active: 13 µM |  |
| CCNC(=S)NNC(=O)CCn1cc(C)cn1 |  | inactive: -22.9% |
| CN(C)S(=O)(=O)N1CCC(N2CCN(Cc3ccc(F)cc3)C(=O)C2=O)CC1 |  | inactive: 7.1% |
| Brc1ccc(OCCN2CCOCC2)cc1 |  | inactive: -0.118% |
| N=c1occ(C(=O)c2cc(F)ccc2O)cc1C(=O)NC1CCCCC1 | inconclusive [inhibitor, partial curve] |  |
| C=C(C)c1cccc(C(C)(C)NC(=O)N2CCC(C)CC2)c1 | inconclusive [inhibitor, single point] |  |
| Cc1cc(C(=O)NCCc2ccc(Cl)cc2)c2ccccc2n1 |  | inconclusive: -33.6% [inhibitor] |

| SMILES | Potency | activity change, negative = growth inhibition |
| --- | --- | --- |
| CCCCNc1nc(N(C)c2ccccc2)nc(-n2ccnc2)n1 | inconclusive [inhibitor, single point] |  |
| OC(CN1CCN(c2cccc(C(F)(F)F)c2)CC1)c1c[nH]c2ccccc12 (stereo not drawn) | active: 23.1 µM |  |
| O=C(c1ccncc1)N1CCC[C@@]2(CCN(c3ccccc3)C2)C1 | inconclusive [inhibitor, single point] |  |
| Cc1c(C(=O)NCc2ccc3c(c2)OCCO3)sc(=O)n1Cc1cccc(C(F)(F)F)c1 | inconclusive [inhibitor, single point] |  |
| CC(=O)c1ccc(N2Cc3ccccc3C2=NC(=O)c2cccs2)cc1 | inconclusive [inhibitor, single point] |  |
| O=C(c1ccc(-c2ccccc2)cc1)N1CCN(c2ncccn2)CC1 | inconclusive [inhibitor, single point] |  |
| Cc1c(NC(=O)Nc2ccc(Cl)cc2)c(=O)n(-c2ccccc2)n1C |  | inactive: -0.173% |
| CNc1cccc(-c2c(OC)cccc2OC)n1 | inconclusive [inhibitor, single point] |  |
| O=c1c2[nH]c3ccc(Cl)cc3c2ncn1CCN1CCCCC1 | inconclusive [inhibitor, partial curve, poor fit] |  |
| CCOc1ccc2nc(NC(=O)c3nc(SC(C)C)ncc3Cl)sc2c1 | active: 8.2 µM |  |
| CCc1cccc2c(-c3ccccc3)nc(SCC(=O)Nc3ccc(OC)cc3)nc12 |  | inactive: 5.05% |
| Fc1ccc(CSc2nc3ncc(Br)cc3[nH]2)cc1 |  | inconclusive: -35.5% [inhibitor] |
| CC(C)[C@H](NC(=O)CNC(=O)OC(C)(C)C)C(=O)N[C@H](C=O)C(C)C (Boc-Gly-Val-Val-aldehyde) | inconclusive [inhibitor, single point] |  |
| COc1cccc(-c2csc(N3CCN(C(=S)Nc4ccccc4Cl)CC3)n2)c1 | inconclusive [inhibitor, single point] |  |
| CC(=O)N1CCN(C(=O)COc2ccccc2C(=O)Nc2ccccc2)CC1 |  | inactive: 6.9% |
| CC1=NN(c2ccccc2)C(=O)C1C=Nc1ccc(N(C)C)cc1 (stereo not drawn) |  | inconclusive: -32.1% [inhibitor] |
| COc1ccc(C2C(C(=O)OC(C)C)=C(C)N=c3s/c(=C\c4cccs4)c(=O)n32)cc1 (stereo not drawn) | inconclusive [inhibitor, single point] |  |
| COc1ccc(CNC(=O)Oc2ccccc2)cc1Cl | active: 11.6 µM |  |
| CNS(=O)(=O)c1cccc(C(=O)OCC(=O)NC2CCCC(C)C2C)c1 (stereo not drawn) |  | inactive: 17.6% |
| Fc1cc(F)cc(-c2c(-c3ccccc3)ncc3ccc(F)cc23)c1 | active: 7.31 µM |  |
| CCOC(=O)N1CCC(NC(=O)CS(=O)(=O)Cc2nc(-c3ccc(OC)cc3)oc2C)CC1 | inconclusive [inhibitor, single point] |  |
| O=C(Cn1c(=O)c2cccn2c2ccc(F)cc21)NCc1cccc(Cl)c1 | inconclusive [inhibitor, partial curve] |  |
| O=C(NC1CCCCCC1)c1cc(S(=O)(=O)N2CCC3(CC2)OCCO3)ccc1F | inconclusive [inhibitor, single point] |  |
